Test results as given in paper PMC10348673 (2023).

Target: RIT1 A57G (17 to 197) (UniProt Q92963 part only, A57G)
Experiment: ITC

Kd: 8.11 µM
B1: BRAF-RBD ([…]) (domain or fragment)
chain: not shown
